Assay results as given in the supplement of paper PMC9135407.
“And” between values parts separate entries of the source, which are not always exact repeats. Identical values can stand only once. Counter-ions that a name gives are not always drawn. In all, about 5,800 compounds went through this assay and about 620 (11%) showed activity.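 The calls were made as follows: active = score above a cut-off or among the top three wells of a plate; in these data no inactive exceeds 0.85.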 Only a part is listed here, and it is no random draw.

System: primary human hepatic stellate cells (donor 1)
Assay: scaled lipid accumulation score (0 = DMSO-like, 1 = nortriptyline-like); higher = stronger HSC inactivation (lipid re-accumulation), active = hit call of the paper
Settings: 48 h
[1] = library stock concentration: 3.33 mM
[2] = library stock concentration: 10 mM
[3] = library stock concentration: 1 mM
[4] = library stock concentration: 80 uM
[5] = library stock concentration: 400 uM
[6] = library stock concentration: 2 mM
[7] = library stock concentration: 4.8 mM
[8] = library stock concentration: 7.5 mM

O=C(O)Cc1cc(I)c(Oc2ccc(O)c(I)c2)c(I)c1 [Tiratricol]
scaled lipid accumulation score [1]: inactive: ≤ 0 | scaled lipid accumulation score [2]: inactive: ≤ -0.001

O=C(O)Cc1cc(I)c(Oc2ccc(O)c(I)c2)c(I)c1 [Tiratricol, 3,3',5-triiodothyroacetic acid]
scaled lipid accumulation score: inactive: 0.108

O=C(O)Cc1cc(I)c(Oc2ccc(O)c(I)c2)c(I)c1
scaled lipid accumulation score [2]: inactive: 0.002

COCCCOc1ccnc(C[S+]([O-])c2nc3ccccc3[nH]2)c1C (stereo not given) [Rabeprazole sodium]
scaled lipid accumulation score (library stock concentration: 5.2 mM): inactive: ≤ 0

COCCCOc1ccnc(C[S+]([O-])c2nc3ccccc3[nH]2)c1C (stereo not given)
scaled lipid accumulation score [2]: inactive: ≤ 0

CC(C)C1C2CCC(C2)C1N (stereo not given)
scaled lipid accumulation score [2]: inactive: 0.338

Nc1c(S(=O)(=O)O)cc(Nc2ccc(Nc3nc(Cl)nc(Nc4cccc(S(=O)(=O)O)c4)n3)c(S(=O)(=O)O)c2)c2c1C(=O)c1ccccc1C2=O [Reactive Blue 2]
scaled lipid accumulation score [2]: inactive: ≤ 0

CO[C@@H]1[C@H](O)[C@@H](CO)O[C@H]1n1cnc2c(NC3CCCCC3)ncnc21
scaled lipid accumulation score [2]: inactive: ≤ -0.001

Cc1c(C)c2c(c(C)c1O)CCC(C)(CCCC(C)C(=O)O)O2 (stereo not given)
scaled lipid accumulation score [3]: inactive: ≤ 0

Cc1ccc(C(=O)C(C)CN2CCCCC2)cc1 (stereo not given) [Tolperisone hydrochloride]
scaled lipid accumulation score [2]: inactive: ≤ 0

Cc1ccc(C(=O)C(C)CN2CCCCC2)cc1 (stereo not given) [Tolperisone HCl]
scaled lipid accumulation score [1]: inactive: ≤ 0 | scaled lipid accumulation score [2]: inactive: ≤ -0.001

Cc1cc(CN2CCN(c3c(Br)cnc4[nH]c(-c5ccc(N6CCN(C)CC6)cc5)nc34)CC2)no1
scaled lipid accumulation score [1]: active: 0.857

COc1ccc(/C=C/c2cc(Cl)cc(Cl)c2)cc1
scaled lipid accumulation score [3]: inactive: ≤ 0

O=C(CCCCC(=O)Nc1c(I)cc(I)c(C(=O)O)c1I)Nc1c(I)cc(I)c(C(=O)O)c1I [Iodipamide]
scaled lipid accumulation score: inactive: 0.041 | scaled lipid accumulation score [2]: inactive: ≤ 0

CN(C)Cc1c(C(=O)NCCOc2ccc(C(=O)NO)cc2)oc2ccccc12
scaled lipid accumulation score [1]: active: 0.855 | scaled lipid accumulation score [2]: active: 1.01

N=C(N)SCCN [2-(2-Aminoethyl)isothiourea dihydrobromide]
scaled lipid accumulation score [2]: inactive: 0.026

N=C(N)SCCN [S-(2-aminoethyl) Isothiourea (dihydrobromide)]
scaled lipid accumulation score [3]: inactive: 0.085

Nc1nccc(-c2ccc3noc(-c4ccc(Cl)cc4)c3c2)n1 [PIM 1 Inhibitor 2]
scaled lipid accumulation score [2]: inactive: ≤ 0

CCCCC1C(=O)N(c2ccccc2)N(c2ccccc2)C1=O [Phenylbutazone]
scaled lipid accumulation score [3]: inactive: ≤ 0 | scaled lipid accumulation score [1]: inactive: ≤ 0 | scaled lipid accumulation score [2]: inactive: ≤ 0

CN(C)c1cc(NC(=O)CNC(C)(C)C)c(O)c2c1CC1CC3C(N(C)C)C(=O)C(C(N)=O)=C(O)C3(O)C(=O)C1=C2O (stereo not given) [Tigecycline]
scaled lipid accumulation score [1]: inactive: ≤ 0 | scaled lipid accumulation score [2]: inactive: ≤ 0

O=C(Nc1ccc2[nH]nc(-c3ccncc3)c2c1)[C@@H]1CCN(CC(=O)N2CCN(c3ccc(-c4ncccn4)cc3)CC2)C1
scaled lipid accumulation score [4]: inactive: ≤ -0.001 | scaled lipid accumulation score [5]: inactive: ≤ -0.001 | scaled lipid accumulation score [6]: inactive: ≤ -0.001

CCCc1nc2c(C)cc(-c3nc4ccccc4n3C)cc2n1Cc1ccc(-c2ccccc2C(=O)O)cc1
scaled lipid accumulation score [2]: inactive: ≤ 0

CCCc1nc2c(C)cc(-c3nc4ccccc4n3C)cc2n1Cc1ccc(-c2ccccc2C(=O)O)cc1 [Telmisartan]
scaled lipid accumulation score [1]: inactive: ≤ 0 | scaled lipid accumulation score [2]: inactive: ≤ 0 and inactive: 0.042

O=C(O)Cc1ccc(O)c(O)c1 [3,4-Dihydroxyphenylacetic acid]
scaled lipid accumulation score [2]: inactive: ≤ -0.07

CNCCCCOc1ccccc1Cc1ccccc1 [Bifemelane]
scaled lipid accumulation score [2]: active: 1.08

COCCCOc1cc(C[C@@H](C[C@H](N)[C@@H](O)C[C@H](C(=O)NCC(C)(C)C(N)=O)C(C)C)C(C)C)ccc1OC [Aliskiren Hemifumarate]
scaled lipid accumulation score [1]: inactive: 0.014 | scaled lipid accumulation score [2]: inactive: 0.027

COCCCOc1cc(C[C@@H](C[C@H](N)[C@@H](O)C[C@H](C(=O)NCC(C)(C)C(N)=O)C(C)C)C(C)C)ccc1OC
scaled lipid accumulation score [2]: inactive: ≤ 0

CCCCOC(=O)c1ccc(O)cc1 [Butylparaben]
scaled lipid accumulation score: inactive: ≤ 0

C#C[C@]1(OC(C)=O)CC[C@H]2[C@@H]3CCC4=CC(=O)CC[C@@H]4[C@H]3CC[C@@]21C
scaled lipid accumulation score [2]: inactive: 0.369

C#C[C@]1(OC(C)=O)CC[C@H]2[C@@H]3CCC4=CC(=O)CC[C@@H]4[C@H]3CC[C@@]21C [Norethindrone acetate]
scaled lipid accumulation score (library stock concentration: 5.9 mM): inactive: ≤ -0.001 | scaled lipid accumulation score [2]: inactive: ≤ 0

OCCC#Cc1nc(-c2ccc(F)cc2)c(-c2ccncc2)n1CCCc1ccccc1
scaled lipid accumulation score [5]: inactive: ≤ -0.005 | scaled lipid accumulation score [6]: inactive: ≤ -0.005 | scaled lipid accumulation score [2]: inactive: 0.668

CCCCC[C@](C)(O)/C=C/[C@@H]1[C@@H](C/C=C\CCCC(=O)O)[C@@H](O)C[C@H]1O [15(S)-15-methyl Prostaglandin F2.alpha.]
scaled lipid accumulation score [3]: inactive: ≤ 0

CC(=O)/N=c1/sc(S(N)(=O)=O)nn1C [Methazolamide]
scaled lipid accumulation score: inactive: ≤ 0 | scaled lipid accumulation score [1]: inactive: ≤ 0 | scaled lipid accumulation score [2]: inactive: ≤ -0.001 and inactive: ≤ -0.014 and inactive: ≤ 0

Cc1ccc(C(=O)N(CCCN)[C@@H](c2nc3cc(Cl)ccc3c(=O)n2Cc2ccccc2)C(C)C)cc1
scaled lipid accumulation score [1]: inactive: 0.21 | scaled lipid accumulation score [2]: inactive: 0.262

N=C(N)N1CCc2ccccc2C1 [Debrisoquin sulfate]
scaled lipid accumulation score: inactive: ≤ 0 | scaled lipid accumulation score (library stock concentration: 7.3 mM): inactive: ≤ 0 | scaled lipid accumulation score [2]: inactive: ≤ -0.07

Cc1ccc2nc(NCCN)c3ncc(C)n3c2c1
scaled lipid accumulation score [4]: inactive: ≤ 0 | scaled lipid accumulation score [5]: inactive: ≤ 0 | scaled lipid accumulation score [6]: inactive: ≤ 0 | scaled lipid accumulation score [1]: inactive: ≤ -0.009 | scaled lipid accumulation score [2]: inactive: 0.422 and inactive: 0.531

CC(C)(C)c1ccc(S(=O)(=O)/C=C/C#N)cc1
scaled lipid accumulation score [2]: active: 1.12

CC(C[N+](C)(C)C)OC(N)=O (stereo not given) [Urecholine]
scaled lipid accumulation score [2]: inactive: ≤ 0

CC(C[N+](C)(C)C)OC(N)=O (stereo not given) [Bethanechol chloride]
scaled lipid accumulation score: inactive: ≤ 0 | scaled lipid accumulation score [1]: inactive: 0.009 | scaled lipid accumulation score [2]: inactive: ≤ 0 and inactive: 0.166

O=C1C(Cl)=C(N2C(=O)CCC2=O)C(=O)c2ccccc21 [MEK Inhibitor II]
scaled lipid accumulation score [1]: inactive: 0.073

COc1ccc(C[C@H](NC(=O)[C@H](C)NC(=O)CN2CCOCC2)C(=O)N[C@@H](Cc2ccccc2)C(=O)[C@@]2(C)CO2)cc1
scaled lipid accumulation score [1]: inactive: 0.535 | scaled lipid accumulation score [2]: inactive: 0.603

C=CCc1ccc(O)c(-c2cc(CC=C)ccc2O)c1 [Magnolol]
scaled lipid accumulation score [1]: inactive: ≤ 0 | scaled lipid accumulation score [2]: inactive: 0.538

COc1ccc2c(c1)C(=O)N(CCc1ccc(S(=O)(=O)NC(=O)NC3CCCCC3)cc1)C(=O)C2(C)C [Gliquidone]
scaled lipid accumulation score: inactive: ≤ 0

CCCCCCCCCCOc1cc2c(O)c(C(=O)OCC)cnc2cc1OCC [Decoquinate]
scaled lipid accumulation score [7]: inactive: ≤ 0

CN(C)CCN(Cc1ccc(Cl)cc1)c1ccccn1 [Chloropyramine hydrochloride]
scaled lipid accumulation score: inactive: 0.325

CC(C)c1cccc(=O)c(O)c1 [Hinokitiol]
scaled lipid accumulation score (library stock concentration: 30.5 mM): inactive: 0.187

NS(=O)(=O)Cc1noc2ccccc12 [Zonisamide]
scaled lipid accumulation score [1]: inactive: 0.04 | scaled lipid accumulation score (library stock concentration: 9.4 mM): inactive: ≤ -0.006 | scaled lipid accumulation score [2]: inactive: 0.005 and inactive: 0.017 and inactive: ≤ 0

CC(=N)NCc1cccc(CN)c1 [1400W dihydrochloride]
scaled lipid accumulation score [2]: inactive: ≤ -0.006

CCCCC/C=C/C=C1/C=CC(=O)[C@@H]1CCCCCCC(=O)O [15-deoxy-.DELTA.12,14-Prostaglandin A1]
scaled lipid accumulation score [3]: inactive: ≤ 0

C[C@H](NC[C@H](O)CP(=O)(O)Cc1ccccc1)c1ccc(Cl)c(Cl)c1
scaled lipid accumulation score [2]: inactive: ≤ -0.006

CC(=O)c1cc([N+](=O)[O-])c(Sc2ccc(F)cc2F)s1
scaled lipid accumulation score [1]: inactive: ≤ -0.009 | scaled lipid accumulation score [2]: inactive: ≤ 0

COc1ccc([C@@H]2Sc3ccccc3N(CCN(C)C)C(=O)[C@@H]2OC(C)=O)cc1
scaled lipid accumulation score [2]: inactive: 0.508

COc1ccc([C@@H]2Sc3ccccc3N(CCN(C)C)C(=O)[C@@H]2OC(C)=O)cc1 [Diltiazem hydrochloride]
scaled lipid accumulation score: inactive: 0.165 | scaled lipid accumulation score (library stock concentration: 4.4 mM): inactive: 0.107 | scaled lipid accumulation score [2]: inactive: 0.492 and inactive: 0.353 and inactive: 0.361

COc1ccc([C@@H]2Sc3ccccc3N(CCN(C)C)C(=O)[C@@H]2OC(C)=O)cc1 [Diltiazem HCl]
scaled lipid accumulation score [1]: inactive: 0.041 | scaled lipid accumulation score [2]: inactive: 0.547

COc1ccc([C@@H]2Sc3ccccc3N(CCN(C)C)C(=O)[C@@H]2OC(C)=O)cc1 [Diltiazem]
scaled lipid accumulation score [7]: inactive: 0.276

Cc1cn([C@H]2C[C@H](N=[N+]=[N-])[C@@H](CO)O2)c(=O)[nH]c1=O
scaled lipid accumulation score [2]: inactive: ≤ 0

Cc1cn([C@H]2C[C@H](N=[N+]=[N-])[C@@H](CO)O2)c(=O)[nH]c1=O [3'-Azido-3'-deoxythymidine]
scaled lipid accumulation score [2]: inactive: 0.071

Cc1cn([C@H]2C[C@H](N=[N+]=[N-])[C@@H](CO)O2)c(=O)[nH]c1=O [Zidovudine, AZT]
scaled lipid accumulation score: inactive: 0.142

Cc1cn([C@H]2C[C@H](N=[N+]=[N-])[C@@H](CO)O2)c(=O)[nH]c1=O [3'-azido-3'-deoxythymidine]
scaled lipid accumulation score [8]: inactive: ≤ 0

Cc1cn([C@H]2C[C@H](N=[N+]=[N-])[C@@H](CO)O2)c(=O)[nH]c1=O [Zidovudine]
scaled lipid accumulation score [1]: inactive: 0.038 | scaled lipid accumulation score [2]: inactive: ≤ 0

Cc1cn([C@H]2C[C@H](N=[N+]=[N-])[C@@H](CO)O2)c(=O)[nH]c1=O [Zidovudine [azt]]
scaled lipid accumulation score [8]: inactive: ≤ 0 | scaled lipid accumulation score [2]: inactive: ≤ 0

COc1cc(N)c(Cl)cc1C(=O)CCC1CCN(CCNS(C)(=O)=O)CC1
scaled lipid accumulation score [2]: inactive: ≤ 0

CCCNC(C)C(=O)Nc1c(C)csc1C(=O)OC (stereo not given) [Articaine hydrochloride]
scaled lipid accumulation score: inactive: ≤ 0

CCCNC(C)C(=O)Nc1c(C)csc1C(=O)OC (stereo not given) [Articaine HCl]
scaled lipid accumulation score [1]: inactive: ≤ 0 | scaled lipid accumulation score [2]: inactive: ≤ -0.001
